# Experimental data published in the supplement of paper PMC8728848.
# This is one part of the list.
# B1: CLL-1 (Homo sapiens) (protein)
# chain: MWIDFFTYSSMSEEVTYADLQFQNSSEMEKIPEIGKFGEKAPPAPSHVWRPAALFLTLLCLLLLIGLGVLASMFHVTLKIEMKKMNKLQNISEELQRNISLQLMSNMNISNKIRNLSTTLQTIATKLCRELYSKEQEHKCKPCPRRWIWHKDSCYFLSDDVQTWQESKMACAAQNASLLKINNKNALEFIKSQSRSYDYWLGLSPEEDSTRGMRVDNIINSSAWVIRNAPDLNNMYCGYINRLYVQYYHCTYKKRMICEKMANPVQLGSTYFREA
# Experiments:
# Test in all cases: glycan array binding signal (z-score within array); higher = stronger binding
# Details in all cases: glycan notation: IUPAC condensed, linker removed
# Gal(a1-4)Gal(b1-4)Glc = biological target: Gal(a1-4)Gal(b1-4)Glc
# Procedure, shortened: (§1)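 Glycan array data came from 3228 arrays in the Consortium for Functional Glycomics database, and only arrays with an available protein sequence were kept. Glycan names were put into IUPAC-condensed notation, and columns mapping to the same glycan were averaged. The binding signal is a within-array Z-score, averaged across arrays of one protein sequence run at different concentrations or buffers and across linkers. A negative Z-score can be read as non-binding.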
# Gal(a1-4)Gal(b1-4)GlcNAc = biological target: Gal(a1-4)Gal(b1-4)GlcNAc
# Procedure, shortened: as §1
# Gal(a1-4)GlcNAc = biological target: Gal(a1-4)GlcNAc
# Procedure, shortened: as §1
# Gal(a1-6)Glc = biological target: Gal(a1-6)Glc
# Procedure, shortened: as §1
# Gal(b1-2)Gal = biological target: Gal(b1-2)Gal
# Procedure, shortened: as §1
# Gal(b1-3)Gal = biological target: Gal(b1-3)Gal
# Procedure, shortened: as §1
# Gal(b1-3)GalNAc = biological target: Gal(b1-3)GalNAc
# Procedure, shortened: as §1
# [1] = biological target: Gal(b1-3)GalNAc(b1-3)Gal(a1-4)Gal(b1-4)Glc
# Procedure, shortened: as §1
# [2] = biological target: Gal(b1-3)GalNAc(b1-4)Gal(b1-4)Glc
# Procedure, shortened: as §1
# [3] = biological target: Gal(b1-3)GalNAc(b1-4)[Neu5Ac(a2-3)]Gal(b1-4)Glc
# Procedure, shortened: as §1
# Gal(b1-3)GlcNAc = biological target: Gal(b1-3)GlcNAc
# Procedure, shortened: as §1
# [4] = biological target: Gal(b1-3)GlcNAc(b1-3)Gal(b1-4)Glc
# Procedure, shortened: as §1
# [5] = biological target: Gal(b1-3)GlcNAc(b1-3)Gal(b1-4)GlcNAc
# Procedure, shortened: as §1
# [6] = biological target: Gal(b1-3)[Fuc(a1-4)]GlcNAc
# Procedure, shortened: as §1
# [7] = biological target: Gal(b1-3)[Fuc(a1-4)]GlcNAc(b1-3)Gal(b1-4)GlcNAc
# Procedure, shortened: as §1
# [8] = biological target: Gal(b1-3)[Fuc(a1-4)]GlcNAc(b1-3)Gal(b1-4)[Fuc(a1-3)]GlcNAc
# Procedure, shortened: as §1
# [9] = biological target: Gal(b1-3)[GlcNAc(b1-6)]GalNAc
# Procedure, shortened: as §1
# [10] = biological target: Gal(b1-3)[Neu5Ac(a2-6)]GalNAc
# Procedure, shortened: as §1
# [11] = biological target: Gal(b1-3)[Neu5Ac(a2-6)]GlcNAc(b1-6)Gal(b1-4)Glc
# Procedure, shortened: as §1
# [12] = biological target: Gal(b1-3)[Neu5Ac(b2-6)]GalNAc
# Procedure, shortened: as §1
# [13] = biological target: Gal(b1-4)GalNAc(a1-3)[Fuc(a1-2)]Gal(b1-4)GlcNAc
# Procedure, shortened: as §1
# [14] = biological target: Gal(b1-4)GalNAc(b1-3)[Fuc(a1-2)]Gal(b1-4)GlcNAc
# Procedure, shortened: as §1
# Gal(b1-4)Glc = biological target: Gal(b1-4)Glc
# Procedure, shortened: as §1
# Gal(b1-4)Glc6S = biological target: Gal(b1-4)Glc6S
# Procedure, shortened: as §1
# Gal(b1-4)GlcNAc = biological target: Gal(b1-4)GlcNAc
# Procedure, shortened: as §1
# [15] = biological target: Gal(b1-4)GlcNAc(b1-2)Man(a1-3)[Gal(b1-4)GlcNAc(b1-2)Man(a1-6)]Man(b1-4)GlcNAc(b1-4)GlcNAc
# Procedure, shortened: as §1
# [16] = biological target: Gal(b1-4)GlcNAc(b1-3)Gal(b1-4)Glc
# Procedure, shortened: as §1
# [17] = biological target: Gal(b1-4)GlcNAc(b1-3)Gal(b1-4)GlcNAc
# Procedure, shortened: as §1
# [18] = biological target: Gal(b1-4)GlcNAc(b1-3)Gal(b1-4)GlcNAc(b1-3)Gal(b1-4)GlcNAc
# Procedure, shortened: as §1
# [19] = biological target: Gal(b1-4)GlcNAc(b1-3)Gal(b1-4)[Fuc(a1-3)]GlcNAc(b1-3)Gal(b1-4)[Fuc(a1-3)]GlcNAc
# Procedure, shortened: as §1
# [20] = biological target: Gal(b1-4)GlcNAc(b1-3)GalNAc
# Procedure, shortened: as §1
# [21] = biological target: Gal(b1-4)GlcNAc(b1-3)[Gal(b1-4)GlcNAc(b1-6)]GalNAc
# Procedure, shortened: as §1
# [22] = biological target: Gal(b1-4)GlcNAc(b1-6)Gal(b1-4)GlcNAc(b1-6)GalNAc
# Procedure, shortened: as §1
# [23] = biological target: Gal(b1-4)GlcNAc(b1-6)GalNAc
# Procedure, shortened: as §1
# [24] = biological target: Gal(b1-4)GlcNAc(b1-6)[Gal(b1-3)]GalNAc
# Procedure, shortened: as §1
# Gal3S(b1-3)GalNAc = biological target: Gal3S(b1-3)GalNAc
# Procedure, shortened: as §1
# Gal3S(b1-3)GlcNAc = biological target: Gal3S(b1-3)GlcNAc
# Procedure, shortened: as §1
# [25] = biological target: Gal3S(b1-3)[Fuc(a1-4)]GlcNAc
# Procedure, shortened: as §1
# Gal3S(b1-4)Glc = biological target: Gal3S(b1-4)Glc
# Procedure, shortened: as §1
# Gal3S(b1-4)Glc6S = biological target: Gal3S(b1-4)Glc6S
# Procedure, shortened: as §1
# Gal3S(b1-4)GlcNAc = biological target: Gal3S(b1-4)GlcNAc
# Procedure, shortened: as §1
# Gal3S(b1-4)GlcNAc6S = biological target: Gal3S(b1-4)GlcNAc6S
# Procedure, shortened: as §1
# Gal3S6S(b1-4)GlcNAc = biological target: Gal3S6S(b1-4)GlcNAc
# Procedure, shortened: as §1
# Gal3S6S(b1-4)GlcNAc6S = biological target: Gal3S6S(b1-4)GlcNAc6S
# Procedure, shortened: as §1
# Gal4S(b1-4)GlcNAc = biological target: Gal4S(b1-4)GlcNAc
# Procedure, shortened: as §1
binder,measurement,setting,value
B1,glycan array binding signal (z-score),Gal(a1-4)Gal(b1-4)Glc,-0.184
same,glycan array binding signal (z-score),Gal(a1-4)Gal(b1-4)GlcNAc,-0.072
same,glycan array binding signal (z-score),Gal(a1-4)GlcNAc,-0.166
same,glycan array binding signal (z-score),Gal(a1-6)Glc,-0.163
same,glycan array binding signal (z-score),Gal(b1-2)Gal,-0.198
same,glycan array binding signal (z-score),Gal(b1-3)Gal,-0.198
same,glycan array binding signal (z-score),Gal(b1-3)GalNAc,-0.159
same,glycan array binding signal (z-score),[1],-0.212
same,glycan array binding signal (z-score),[2],-0.279
same,glycan array binding signal (z-score),[3],-0.157
same,glycan array binding signal (z-score),Gal(b1-3)GlcNAc,-0.175
same,glycan array binding signal (z-score),[4],-0.048
same,glycan array binding signal (z-score),[5],-0.141
same,glycan array binding signal (z-score),[6],-0.168
same,glycan array binding signal (z-score),[7],-0.114
same,glycan array binding signal (z-score),[8],-0.122
same,glycan array binding signal (z-score),[9],-0.17
same,glycan array binding signal (z-score),[10],-0.197
same,glycan array binding signal (z-score),[11],-0.261
same,glycan array binding signal (z-score),[12],-0.117
same,glycan array binding signal (z-score),[13],-0.189
same,glycan array binding signal (z-score),[14],-0.259
same,glycan array binding signal (z-score),Gal(b1-4)Glc,-0.186
same,glycan array binding signal (z-score),Gal(b1-4)Glc6S,-0.187
same,glycan array binding signal (z-score),Gal(b1-4)GlcNAc,-0.173
same,glycan array binding signal (z-score),[15],-0.216
same,glycan array binding signal (z-score),[16],-0.267
same,glycan array binding signal (z-score),[17],-0.256
same,glycan array binding signal (z-score),[18],-0.169
same,glycan array binding signal (z-score),[19],-0.107
same,glycan array binding signal (z-score),[20],-0.238
same,glycan array binding signal (z-score),[21],-0.154
same,glycan array binding signal (z-score),[22],-0.227
same,glycan array binding signal (z-score),[23],-0.234
same,glycan array binding signal (z-score),[24],-0.188
same,glycan array binding signal (z-score),Gal3S(b1-3)GalNAc,-0.125
same,glycan array binding signal (z-score),Gal3S(b1-3)GlcNAc,-0.256
same,glycan array binding signal (z-score),[25],-0.158
same,glycan array binding signal (z-score),Gal3S(b1-4)Glc,0.106
same,glycan array binding signal (z-score),Gal3S(b1-4)Glc6S,1
same,glycan array binding signal (z-score),Gal3S(b1-4)GlcNAc,-0.158
same,glycan array binding signal (z-score),Gal3S(b1-4)GlcNAc6S,0.454
same,glycan array binding signal (z-score),Gal3S6S(b1-4)GlcNAc,0.063
same,glycan array binding signal (z-score),Gal3S6S(b1-4)GlcNAc6S,3.91
same,glycan array binding signal (z-score),Gal4S(b1-4)GlcNAc,-0.123
